From the supplement of paper PMC10600219 come the findings set out here.

Structures can show the parent of a compound that is named as a salt. Whole data set: some 2,800 compounds, median “cell viability relative to vehicle” near 1.1, cut for the lowest 2% near 0.19. The list shows a part of the results.

In the assay the test system is NCI-H2228 parental. The experiment in a line: cell viability relative to vehicle (fraction of vehicle); NCI-H2228 is an ALK-positive lung cancer line and DTP means drug-tolerant persister; higher = less growth inhibition. As to conditions: 100 nM; treatment time 6 days. The method, boiled down: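 Drug-tolerant persister NCI-H2228 cells, produced by 13 days in 1000 nM of a targeted drug, and their parental counterparts were seeded into 384-well plates and, the following day, given the 3114-agent TargetMol anti-cancer compound library at 100 nM or DMSO vehicle. After 6 days, the CellTiter-Glo 3D Cell Viability Assay was used to read ATP. Each entry reports viability compared with vehicle-treated cells.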
For `O=C(O)CNC(=O)c1c(O)c2ccccc2n(Cc2ccccc2)c1=O`, the cell viability turned out to be 1.1.
`CC(CCc1ccccc1)NC(C)C(O)c1ccc(O)cc1` (stereo unspecified) [Nylidrin hydrochloride]: the cell viability turned out to be 0.957.
The same measure for `C[C@]12CC[C@H](O)C[C@H]1CC[C@@H]1[C@@H]2CC[C@]2(C)[C@@](O)(c3ccoc3)CC[C@]12O` [Rostafuroxin]: 1.03; for `COc1ccc(/C=C/C=C2C(=O)NC(=O)NC2=O)cc1`: 1.17.
Take `C[N+](C)(C)CCCCCCCCCC[N+](C)(C)C` [Decamethonium bromide]: the cell viability was 1.05.
For the compound `c1cnc(N2CCNCC2)nc1` [2-(1-Piperazinyl)pyrimidine], the cell viability was 1.25.
On to `C[C@H]1CCC2N(C1)C[C@H]1C3CC4[C@@H](CC(=O)C5C[C@@H](O)CC[C@@]54C)C3CCC1[C@]2(C)O` (stereo partly specified) [Peiminine], for which the cell viability is 1.12.
In the case of `CCc1c2c(nc3ccccc13)-c1cc3c(c(=O)n1C2)COC(=O)[C@]3(O)CC` [7-Ethylcamptothecin], the cell viability is 0.054.
As for `CCNC(=O)C[C@@H]1N=C(c2ccc(Cl)cc2)c2cc(OC)ccc2-n2c(C)nnc21` [Molibresib], the cell viability amounted to 1.07.
Take `CC(C)=CCC[C@]1(C)C=Cc2c(O)c3c(c(CC=C(C)C)c2O1)O[C@]12C(=C[C@@H]4C[C@H]1C(C)(C)O[C@@]2(C/C=C(/C)C(=O)O)C4=O)C3=O` [Gambogic Acid]: the cell viability is 1.06.
Consider `CN1c2ccccc2C(NCCCCCCC(=O)O)c2ccc(Cl)cc2S1(=O)=O` (stereo unspecified) [Tianeptine sodium], for which the cell viability came to 0.989.
Regarding `COC(=O)Nc1nc2ccccc2[nH]1` [Carbendazim], the cell viability stood at 1.18.
Take `O=C/C=C/c1ccccc1` [Cinnamaldehyde]: the cell viability worked out at 1.06.
For the compound `N#Cc1nn(-c2c(Cl)cc(C(F)(F)F)cc2Cl)c(N)c1[S+]([O-])C(F)(F)F` (stereo unspecified) [Fipronil], the cell viability was found to be 1.11.
Regarding `CC[C@@]1(O)C(=O)OCc2c1cc1n(c2=O)Cc2cc3ccccc3nc2-1` [(S)-(+)-Camptothecin], the cell viability is 0.0882.
To `COc1cc2c3c(c1OC)-c1ccccc1C[C@H]3N(C)CC2` [Nuciferine] belongs 0.985; to `O=P(O)(NCCCl)NCCCl` [Palifosfamide], 1.06; to `c1c2c(cc3c1OCO3)-c1cc3ccc4c(c3c[n+]1CC2)OCO4` [Coptisine chloride], 0.97.
As for `c1c2c(cc3c1OCO3)-c1cc3ccc4c(c3c[n+]1CC2)OCO4` [Coptisine], the cell viability amounted to 1.06.
Take `C[C@H]1CCC/C=C/[C@@H]2C[C@H](O)C[C@H]2[C@H](O)/C=C/C(=O)O1` [Brefeldin A]: the cell viability is 0.0967.
Take `CCC12C=CCN3CC[C@@]4(c5ccc(OC)cc5N(C)[C@H]4[C@@](O)(C(=O)OC)[C@@H]1OC(C)=O)[C@@H]32` (stereo partly specified) [Vindoline]: the cell viability turned out to be 1.06.
